Experimental findings from article PMC3639976 are described below.

Protein sequences, listed by entry. Tags and fused reporters are not part of them. Lines headed by an entry give the natural chain unless they say otherwise; changes in a name come on top.
UniProt P35396: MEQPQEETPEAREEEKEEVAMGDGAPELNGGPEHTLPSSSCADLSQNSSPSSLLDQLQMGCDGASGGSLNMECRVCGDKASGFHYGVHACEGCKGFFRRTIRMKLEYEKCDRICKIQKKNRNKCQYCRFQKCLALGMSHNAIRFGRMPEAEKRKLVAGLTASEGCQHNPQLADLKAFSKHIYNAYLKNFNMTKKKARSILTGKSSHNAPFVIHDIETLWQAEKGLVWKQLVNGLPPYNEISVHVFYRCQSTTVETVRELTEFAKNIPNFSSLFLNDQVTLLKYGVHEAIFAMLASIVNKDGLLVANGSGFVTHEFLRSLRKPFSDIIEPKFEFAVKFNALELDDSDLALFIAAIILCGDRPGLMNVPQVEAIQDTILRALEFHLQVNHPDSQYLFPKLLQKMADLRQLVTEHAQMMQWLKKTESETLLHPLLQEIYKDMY
UniProt P04792: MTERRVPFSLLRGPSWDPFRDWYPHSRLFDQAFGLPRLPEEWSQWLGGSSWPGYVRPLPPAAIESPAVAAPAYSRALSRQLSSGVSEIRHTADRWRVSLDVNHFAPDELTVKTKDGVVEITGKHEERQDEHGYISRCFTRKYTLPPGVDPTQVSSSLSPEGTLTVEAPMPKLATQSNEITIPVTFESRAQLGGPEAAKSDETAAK
UniProt Q04206: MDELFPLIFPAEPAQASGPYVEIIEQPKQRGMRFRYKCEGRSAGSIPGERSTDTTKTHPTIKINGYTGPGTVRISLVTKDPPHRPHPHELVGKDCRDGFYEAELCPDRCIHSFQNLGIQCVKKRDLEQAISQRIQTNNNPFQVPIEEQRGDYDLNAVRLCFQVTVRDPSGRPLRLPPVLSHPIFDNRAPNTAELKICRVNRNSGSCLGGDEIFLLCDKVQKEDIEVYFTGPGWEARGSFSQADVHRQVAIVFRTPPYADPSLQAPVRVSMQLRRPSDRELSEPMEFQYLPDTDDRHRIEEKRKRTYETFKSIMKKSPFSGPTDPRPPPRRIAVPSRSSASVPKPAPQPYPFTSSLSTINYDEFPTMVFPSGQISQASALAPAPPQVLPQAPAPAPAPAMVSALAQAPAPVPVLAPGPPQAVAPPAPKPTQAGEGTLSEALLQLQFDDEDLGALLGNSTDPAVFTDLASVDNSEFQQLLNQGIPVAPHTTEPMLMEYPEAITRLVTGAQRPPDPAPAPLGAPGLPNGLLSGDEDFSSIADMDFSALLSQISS
UniProt Q03181: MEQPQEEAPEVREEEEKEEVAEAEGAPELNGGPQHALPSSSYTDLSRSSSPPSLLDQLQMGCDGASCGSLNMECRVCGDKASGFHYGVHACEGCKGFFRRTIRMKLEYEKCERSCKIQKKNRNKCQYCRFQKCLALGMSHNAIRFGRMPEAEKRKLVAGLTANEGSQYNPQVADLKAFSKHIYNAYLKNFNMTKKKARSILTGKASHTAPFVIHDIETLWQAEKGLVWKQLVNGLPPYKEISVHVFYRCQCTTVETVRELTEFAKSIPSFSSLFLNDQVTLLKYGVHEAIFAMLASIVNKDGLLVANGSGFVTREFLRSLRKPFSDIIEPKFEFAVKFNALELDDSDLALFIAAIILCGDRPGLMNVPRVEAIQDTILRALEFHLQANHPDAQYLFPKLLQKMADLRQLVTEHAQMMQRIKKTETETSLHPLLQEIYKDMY

Results are given in words; binding and its absence hold for the method and conditions named. Binding seen in cells or lysates may run through a third protein. Some results given as binding are weak or reduced against the parent protein; the word gives no strength. For some of these results: Tags and fused reporters may be left off the sequences shown.

In experiment [1] the target is T1, GFP-TAB1 (UniProt Q15750).
T1 sequence: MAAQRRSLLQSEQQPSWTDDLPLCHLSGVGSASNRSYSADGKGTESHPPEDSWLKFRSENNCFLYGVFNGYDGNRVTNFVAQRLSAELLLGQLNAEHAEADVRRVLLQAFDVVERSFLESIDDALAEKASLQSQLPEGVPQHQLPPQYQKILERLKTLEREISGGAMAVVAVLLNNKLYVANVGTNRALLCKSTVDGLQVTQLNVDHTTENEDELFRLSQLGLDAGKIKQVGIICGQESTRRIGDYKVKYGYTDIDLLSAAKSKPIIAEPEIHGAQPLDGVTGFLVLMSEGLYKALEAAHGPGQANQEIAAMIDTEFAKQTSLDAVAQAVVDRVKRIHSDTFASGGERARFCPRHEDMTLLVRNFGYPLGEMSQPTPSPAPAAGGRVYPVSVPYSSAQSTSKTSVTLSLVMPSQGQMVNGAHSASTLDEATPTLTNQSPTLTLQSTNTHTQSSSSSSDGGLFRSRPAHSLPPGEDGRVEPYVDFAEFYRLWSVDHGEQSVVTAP
Description: co-IP; HEK293IL-1R cells transfected, GFP-TAK1 or GFP-TAB1 alone (no co-expressed MYC-TAB1); pulldown with GFP-Trap_A agarose beads, 2 h at 4°C, washes with lysis buffer (0,5 M NaCl); immunoblotting.

The target in experiment [2] is T2, GFP-TAK1 1–362 (UniProt O43318).
T2 sequence: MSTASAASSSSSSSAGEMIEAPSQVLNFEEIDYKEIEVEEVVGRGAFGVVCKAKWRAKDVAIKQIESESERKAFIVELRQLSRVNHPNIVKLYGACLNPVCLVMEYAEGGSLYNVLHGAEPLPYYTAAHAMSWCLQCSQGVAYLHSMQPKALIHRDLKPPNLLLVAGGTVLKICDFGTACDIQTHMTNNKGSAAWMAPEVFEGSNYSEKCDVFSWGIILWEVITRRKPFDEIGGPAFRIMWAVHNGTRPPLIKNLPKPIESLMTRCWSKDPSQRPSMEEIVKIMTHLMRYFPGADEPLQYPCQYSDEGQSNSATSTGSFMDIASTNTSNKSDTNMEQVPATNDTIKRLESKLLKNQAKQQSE
Description: co-IP; GFP-TAK1 deletion mutants with FLAG-PPARβ/δ; 'experimental details were as in Figure 6A' (HEK293IL-1R, pulldown with an antibody against GFP); whether MYC-TAB1 was co-expressed is not told.

For experiment [3], the target named is T3, GFP-TAK1 1–579 (wt) (UniProt O43318).
T3 sequence: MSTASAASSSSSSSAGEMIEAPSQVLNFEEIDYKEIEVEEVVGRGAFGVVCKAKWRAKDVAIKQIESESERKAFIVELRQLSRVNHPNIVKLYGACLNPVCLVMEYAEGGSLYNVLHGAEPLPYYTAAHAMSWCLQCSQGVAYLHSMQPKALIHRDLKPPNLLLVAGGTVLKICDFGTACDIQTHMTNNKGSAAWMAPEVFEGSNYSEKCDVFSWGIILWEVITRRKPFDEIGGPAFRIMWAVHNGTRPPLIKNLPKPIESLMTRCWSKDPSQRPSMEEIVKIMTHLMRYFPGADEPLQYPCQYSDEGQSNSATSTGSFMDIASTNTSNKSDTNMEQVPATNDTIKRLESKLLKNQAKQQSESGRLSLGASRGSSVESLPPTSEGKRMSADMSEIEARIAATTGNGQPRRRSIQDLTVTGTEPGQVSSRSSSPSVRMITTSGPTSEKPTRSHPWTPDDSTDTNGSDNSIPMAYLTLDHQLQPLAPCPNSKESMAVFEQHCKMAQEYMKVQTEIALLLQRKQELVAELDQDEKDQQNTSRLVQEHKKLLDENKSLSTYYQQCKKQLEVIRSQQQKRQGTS
The description is as above.

The target in experiment [4] is T4, GFP-TAK1 1–493 (UniProt O43318).
T4 sequence: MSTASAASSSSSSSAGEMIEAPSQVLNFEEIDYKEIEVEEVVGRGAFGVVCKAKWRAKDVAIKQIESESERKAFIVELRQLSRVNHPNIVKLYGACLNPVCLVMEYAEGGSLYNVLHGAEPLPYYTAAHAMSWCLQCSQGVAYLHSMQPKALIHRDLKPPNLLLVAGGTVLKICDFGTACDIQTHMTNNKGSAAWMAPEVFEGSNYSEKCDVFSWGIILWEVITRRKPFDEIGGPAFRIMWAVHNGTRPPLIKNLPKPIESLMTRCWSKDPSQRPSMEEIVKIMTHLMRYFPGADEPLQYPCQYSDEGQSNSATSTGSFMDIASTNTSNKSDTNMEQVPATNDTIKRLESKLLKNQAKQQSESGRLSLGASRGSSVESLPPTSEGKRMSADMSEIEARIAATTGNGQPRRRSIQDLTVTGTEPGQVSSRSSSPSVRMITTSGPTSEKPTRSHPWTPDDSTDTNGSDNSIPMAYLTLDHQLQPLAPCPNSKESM
Described as above.

Experiment [5] addresses T5, GFP-TAK1 1–296 (UniProt O43318).
T5 sequence: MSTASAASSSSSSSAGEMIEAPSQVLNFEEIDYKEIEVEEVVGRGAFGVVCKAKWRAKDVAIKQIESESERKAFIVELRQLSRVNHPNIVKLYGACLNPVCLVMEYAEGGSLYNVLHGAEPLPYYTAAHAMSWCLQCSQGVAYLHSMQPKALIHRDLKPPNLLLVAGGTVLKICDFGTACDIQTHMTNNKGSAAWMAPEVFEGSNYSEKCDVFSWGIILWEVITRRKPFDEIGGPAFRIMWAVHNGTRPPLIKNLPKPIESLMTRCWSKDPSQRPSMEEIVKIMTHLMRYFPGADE
Described as above.

The target of experiment [6] is 3xFLAG-PPARβ/δ (mouse) (UniProt P35396). Nature of the experiment: co-IP; HEK293T cells transfected, fractionated; nuclear fraction; pulldown with an antibody against FLAG; immunoblotting with anti-HA antibodies.
Experiment [7] has the same target. Description: co-IP; HEK293T cells transfected, fractionated; cytoplasmic fraction; pulldown with an antibody against FLAG; immunoblotting.
Experiment [8] shares this target. Nature of the experiment: co-IP; HEK293IL-1R cells transfected; pulldown with FLAG antibodies on Protein G Sepharose, 2 h at 4°C, washes with lysis buffer (0,5 M NaCl); immunoblotting.
Experiment [9] has as its target endogenous HSP27 (human (endogenous in HEK293T)) (UniProt P04792). Nature of the experiment: co-IP; untransfected HEK293T cells treated with formaldehyde to stabilize protein interactions (ChIP protocol); immunoprecipitation with antibodies against HSP27, TAK1 or TAB1; immunoblotting with PPARβ/δ-specific antibodies.
Experiment [10] has as its target T6, endogenous TAK1 (human (endogenous in HEK293T)) (UniProt O43318).
T6 sequence: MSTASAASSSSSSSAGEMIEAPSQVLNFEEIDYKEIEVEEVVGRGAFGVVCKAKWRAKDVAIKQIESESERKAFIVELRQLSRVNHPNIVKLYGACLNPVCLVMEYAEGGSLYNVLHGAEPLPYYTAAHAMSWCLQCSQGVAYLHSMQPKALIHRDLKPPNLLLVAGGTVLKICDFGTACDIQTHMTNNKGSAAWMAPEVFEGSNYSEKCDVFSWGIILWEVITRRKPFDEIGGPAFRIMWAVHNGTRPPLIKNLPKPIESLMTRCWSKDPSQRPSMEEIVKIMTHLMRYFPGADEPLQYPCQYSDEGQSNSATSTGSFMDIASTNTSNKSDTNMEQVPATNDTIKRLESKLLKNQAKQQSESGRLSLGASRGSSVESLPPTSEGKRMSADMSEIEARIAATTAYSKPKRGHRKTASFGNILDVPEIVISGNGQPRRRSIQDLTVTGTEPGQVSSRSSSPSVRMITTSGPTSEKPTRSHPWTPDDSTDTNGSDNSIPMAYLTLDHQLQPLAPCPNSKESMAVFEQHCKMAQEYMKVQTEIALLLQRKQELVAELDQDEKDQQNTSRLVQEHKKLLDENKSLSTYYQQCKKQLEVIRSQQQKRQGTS
Described as above.

The target of experiment [11] is T7, endogenous TAB1 (human (endogenous in HEK293T)) (UniProt Q15750).
T7 sequence: T1 sequence
The experiment is described as above.

As to “3xFLAG-PPARβ/δ 4-165 (from UniProt P35396 4-165) (domain or fragment)”, the binding result in experiment [1] is listed as “no binding”.
On to “3xFLAG-PPARβ/δ (from UniProt P35396 1-440)”, for which the binding entry in [1], in [2], in experiment [3], in experiment [4] and in experiment [5] was “binds” throughout.
As to “FLAG-PPARβ/δ 4–152 (from UniProt P35396 4-152) (domain or fragment)”, the binding result in experiment [1] is reported as “no binding”.
Turning to “HA-tagged HSP27 (from UniProt P04792 1-205)”, the figures for the binding entry in experiment [6] and in [7] were “no binding (condition: nuclear fraction)” and “binds”, respectively.
In the case of “HA-tagged p65 (from UniProt Q04206 1-551)”, the binding entry in [8] is reported as “binds”.
As for “endogenous PPARβ/δ (from UniProt Q03181 1-441)”, the binding entry in [9], in [10] and in experiment [11] was “binds” in each case.
